The supplement of paper PMC8728848
The other results are listed elsewhere or left out.

Columns and labels:
Assay in all cases: glycan array binding signal (z-score within array); higher = stronger binding
Settings in all cases: glycan notation: IUPAC condensed, linker removed
Fuc(a1-2)Gal = biological target: Fuc(a1-2)Gal
Outline: (§1)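 Negative Z-scores can be read as non-binding. The Z-score is calculated within each array and then averaged across arrays of one protein sequence at different concentrations or buffers and across linkers. Arrays, 3228 in all, were curated from the Consortium for Functional Glycomics database and kept only where the protein sequence was available.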

Fuc(a1-2)Gal(b1-3)GalNAc = biological target: Fuc(a1-2)Gal(b1-3)GalNAc
Outline: as §1

[1] = biological target: Fuc(a1-2)Gal(b1-3)GalNAc(b1-3)Gal
Outline: as §1

[2] = biological target: Fuc(a1-2)Gal(b1-3)GalNAc(b1-3)Gal(a1-4)Gal(b1-4)Glc
Outline: as §1

[3] = biological target: Fuc(a1-2)Gal(b1-3)GalNAc(b1-4)[Neu5Ac(a2-3)]Gal(b1-4)Glc
Outline: as §1

Fuc(a1-2)Gal(b1-3)GlcNAc = biological target: Fuc(a1-2)Gal(b1-3)GlcNAc
Outline: as §1

[4] = biological target: Fuc(a1-2)Gal(b1-3)GlcNAc(b1-3)Gal(b1-4)Glc
Outline: as §1

[5] = biological target: Fuc(a1-2)Gal(b1-3)[Fuc(a1-4)]GlcNAc
Outline: as §1

Fuc(a1-2)Gal(b1-4)Glc = biological target: Fuc(a1-2)Gal(b1-4)Glc
Outline: as §1

Fuc(a1-2)Gal(b1-4)GlcNAc = biological target: Fuc(a1-2)Gal(b1-4)GlcNAc
Outline: as §1

[6] = biological target: Fuc(a1-2)Gal(b1-4)GlcNAc(b1-3)Gal(b1-4)GlcNAc
Outline: as §1

[7] = biological target: Fuc(a1-2)Gal(b1-4)GlcNAc(b1-3)Gal(b1-4)GlcNAc(b1-3)Gal(b1-4)GlcNAc
Outline: as §1

[8] = biological target: Fuc(a1-2)Gal(b1-4)[Fuc(a1-3)]GlcNAc
Outline: as §1

[9] = biological target: Fuc(a1-2)Gal(b1-4)[Fuc(a1-3)]GlcNAc(b1-3)Gal(b1-4)[Fuc(a1-3)]GlcNAc
Outline: as §1

[10] = biological target: Fuc(a1-2)Gal(b1-4)[Fuc(a1-3)]GlcNAc(b1-3)Gal(b1-4)[Fuc(a1-3)]GlcNAc(b1-3)Gal(b1-4)[Fuc(a1-3)]GlcNAc
Outline: as §1

Fuc(a1-2)GlcNAc = biological target: Fuc(a1-2)GlcNAc
Outline: as §1

Fuc(a1-2)[Gal(a1-3)]Gal = biological target: Fuc(a1-2)[Gal(a1-3)]Gal
Outline: as §1

[11] = biological target: Fuc(a1-2)[Gal(a1-3)]Gal(b1-3)GlcNAc
Outline: as §1

[12] = biological target: Fuc(a1-2)[Gal(a1-3)]Gal(b1-4)Glc
Outline: as §1

[13] = biological target: Fuc(a1-2)[Gal(a1-3)]Gal(b1-4)GlcNAc
Outline: as §1

[14] = biological target: Fuc(a1-2)[Gal(a1-3)]Gal(b1-4)[Fuc(a1-3)]GlcNAc
Outline: as §1

[15] = biological target: Fuc(a1-2)[Gal(a1-4)]Gal(b1-4)GlcNAc
Outline: as §1

[16] = biological target: Fuc(a1-2)[GalNAc(a1-3)]Gal
Outline: as §1

[17] = biological target: Fuc(a1-2)[GalNAc(a1-3)]Gal(b1-3)GlcNAc
Outline: as §1

[18] = biological target: Fuc(a1-2)[GalNAc(a1-3)]Gal(b1-4)Glc
Outline: as §1

[19] = biological target: Fuc(a1-2)[GalNAc(a1-3)]Gal(b1-4)GlcNAc
Outline: as §1

[20] = biological target: Fuc(a1-2)[GalNAc(a1-3)]Gal(b1-4)[Fuc(a1-3)]GlcNAc
Outline: as §1

[21] = biological target: Fuc(a1-2)[GalNAc(a1-4)]Gal(b1-4)GlcNAc
Outline: as §1

[22] = biological target: Fuc(a1-2)[GalNAc(b1-3)]Gal
Outline: as §1

Fuc(a1-3)GlcNAc = biological target: Fuc(a1-3)GlcNAc
Outline: as §1

[23] = biological target: Fuc(a1-3)[Gal(b1-4)]GlcNAc
Outline: as §1

[24] = biological target: Fuc(a1-3)[Gal(b1-4)]GlcNAc(b1-4)Gal(b1-4)[Fuc(a1-3)]GlcNAc
Outline: as §1

[25] = biological target: Fuc(a1-3)[Gal(b1-4)]GlcNAc(b1-4)Gal(b1-4)[Fuc(a1-3)]GlcNAc(b1-4)Gal(b1-4)[Fuc(a1-3)]GlcNAc
Outline: as §1

[26] = biological target: Fuc(a1-3)[Gal3S(b1-4)]GlcNAc
Outline: as §1

[27] = biological target: Fuc(a1-3)[GalNAc(b1-4)]GlcNAc
Outline: as §1

Fuc(a1-4)GlcNAc = biological target: Fuc(a1-4)GlcNAc
Outline: as §1

Fuc(b1-3)GlcNAc = biological target: Fuc(b1-3)GlcNAc
Outline: as §1

Gal(a1-2)Gal = biological target: Gal(a1-2)Gal
Outline: as §1

Gal(a1-3)Gal = biological target: Gal(a1-3)Gal
Outline: as §1

Gal(a1-3)Gal(b1-3)GlcNAc = biological target: Gal(a1-3)Gal(b1-3)GlcNAc
Outline: as §1

Gal(a1-3)Gal(b1-4)Glc = biological target: Gal(a1-3)Gal(b1-4)Glc
Outline: as §1

Gal(a1-3)Gal(b1-4)GlcNAc = biological target: Gal(a1-3)Gal(b1-4)GlcNAc
Outline: as §1

[28] = biological target: Gal(a1-3)Gal(b1-4)[Fuc(a1-3)]GlcNAc
Outline: as §1

Gal(a1-3)GalNAc = biological target: Gal(a1-3)GalNAc
Outline: as §1

[29] = biological target: Gal(a1-3)[Gal(a1-4)]Gal(b1-4)GlcNAc
Outline: as §1

Gal(a1-4)Gal(b1-4)Glc = biological target: Gal(a1-4)Gal(b1-4)Glc
Outline: as §1

Gal(a1-4)Gal(b1-4)GlcNAc = biological target: Gal(a1-4)Gal(b1-4)GlcNAc
Outline: as §1

Gal(a1-4)GlcNAc = biological target: Gal(a1-4)GlcNAc
Outline: as §1

Gal(a1-6)Glc = biological target: Gal(a1-6)Glc
Outline: as §1

Gal(b1-2)Gal = biological target: Gal(b1-2)Gal
Outline: as §1

Gal(b1-3)Gal = biological target: Gal(b1-3)Gal
Outline: as §1

Gal(b1-3)GalNAc = biological target: Gal(b1-3)GalNAc
Outline: as §1

[30] = biological target: Gal(b1-3)GalNAc(b1-3)Gal(a1-4)Gal(b1-4)Glc
Outline: as §1

[31] = biological target: Gal(b1-3)GalNAc(b1-4)Gal(b1-4)Glc
Outline: as §1

[32] = biological target: Gal(b1-3)GalNAc(b1-4)[Neu5Ac(a2-3)]Gal(b1-4)Glc
Outline: as §1

Gal(b1-3)GlcNAc = biological target: Gal(b1-3)GlcNAc
Outline: as §1

[33] = biological target: Gal(b1-3)GlcNAc(b1-3)Gal(b1-4)Glc
Outline: as §1

[34] = biological target: Gal(b1-3)GlcNAc(b1-3)Gal(b1-4)GlcNAc
Outline: as §1

[35] = biological target: Gal(b1-3)[Fuc(a1-4)]GlcNAc
Outline: as §1

[36] = biological target: Gal(b1-3)[Fuc(a1-4)]GlcNAc(b1-3)Gal(b1-4)GlcNAc
Outline: as §1

B1: TREM-2 (Mus musculus), Q99NH8 (protein)
chain: MGPLHQFLLLLITALSQALNTTVLQGMAGQSLRVSCTYDALKHWGRRKAWCRQLGEEGPCQRVVSTHGVWLLAFLKKRNGSTVIADDTLAGTVTITLKNLQAGDAGLYQCQSLRGREAEVLQKVLVEVLEDPLDDQDAGDLWVPEESSSFEGAQVEHSTSRNQETSFPPTSILLLLACVLLSKFLAASILWAVARGRQKPGTPVVRGLDCGQDAGHQLQILTGPGGT
- glycan array binding signal (z-score) (Fuc(a1-2)Gal): -0.4
- glycan array binding signal (z-score) (Fuc(a1-2)Gal(b1-3)GalNAc): -0.371
- glycan array binding signal (z-score) [1]: -0.213
- glycan array binding signal (z-score) [2]: -0.247
- glycan array binding signal (z-score) [3]: -0.329
- glycan array binding signal (z-score) (Fuc(a1-2)Gal(b1-3)GlcNAc): -0.394
- glycan array binding signal (z-score) [4]: -0.355
- glycan array binding signal (z-score) [5]: -0.376
- glycan array binding signal (z-score) (Fuc(a1-2)Gal(b1-4)Glc): -0.36
- glycan array binding signal (z-score) (Fuc(a1-2)Gal(b1-4)GlcNAc): -0.407
- glycan array binding signal (z-score) [6]: -0.354
- glycan array binding signal (z-score) [7]: -0.287
- glycan array binding signal (z-score) [8]: -0.39
- glycan array binding signal (z-score) [9]: -0.292
- glycan array binding signal (z-score) [10]: -0.286
- glycan array binding signal (z-score) (Fuc(a1-2)GlcNAc): -0.471
- glycan array binding signal (z-score) (Fuc(a1-2)[Gal(a1-3)]Gal): -0.404
- glycan array binding signal (z-score) [11]: -0.349
- glycan array binding signal (z-score) [12]: -0.308
- glycan array binding signal (z-score) [13]: -0.348
- glycan array binding signal (z-score) [14]: -0.239
- glycan array binding signal (z-score) [15]: -0.361
- glycan array binding signal (z-score) [16]: -0.382
- glycan array binding signal (z-score) [17]: -0.37
- glycan array binding signal (z-score) [18]: -0.292
- glycan array binding signal (z-score) [19]: -0.376
- glycan array binding signal (z-score) [20]: -0.339
- glycan array binding signal (z-score) [21]: -0.425
- glycan array binding signal (z-score) [22]: -0.106
- glycan array binding signal (z-score) (Fuc(a1-3)GlcNAc): -0.416
- glycan array binding signal (z-score) [23]: -0.375
- glycan array binding signal (z-score) [24]: -0.081
- glycan array binding signal (z-score) [25]: -0.306
- glycan array binding signal (z-score) [26]: -0.356
- glycan array binding signal (z-score) [27]: -0.397
- glycan array binding signal (z-score) (Fuc(a1-4)GlcNAc): -0.413
- glycan array binding signal (z-score) (Fuc(b1-3)GlcNAc): -0.402
- glycan array binding signal (z-score) (Gal(a1-2)Gal): -0.324
- glycan array binding signal (z-score) (Gal(a1-3)Gal): -0.298
- glycan array binding signal (z-score) (Gal(a1-3)Gal(b1-3)GlcNAc): -0.388
- glycan array binding signal (z-score) (Gal(a1-3)Gal(b1-4)Glc): -0.38
- glycan array binding signal (z-score) (Gal(a1-3)Gal(b1-4)GlcNAc): -0.304
- glycan array binding signal (z-score) [28]: -0.303
- glycan array binding signal (z-score) (Gal(a1-3)GalNAc): -0.394
- glycan array binding signal (z-score) [29]: -0.376
- glycan array binding signal (z-score) (Gal(a1-4)Gal(b1-4)Glc): -0.262
- glycan array binding signal (z-score) (Gal(a1-4)Gal(b1-4)GlcNAc): -0.243
- glycan array binding signal (z-score) (Gal(a1-4)GlcNAc): -0.395
- glycan array binding signal (z-score) (Gal(a1-6)Glc): -0.074
- glycan array binding signal (z-score) (Gal(b1-2)Gal): -0.285
- glycan array binding signal (z-score) (Gal(b1-3)Gal): -0.303
- glycan array binding signal (z-score) (Gal(b1-3)GalNAc): -0.379
- glycan array binding signal (z-score) [30]: -0.352
- glycan array binding signal (z-score) [31]: -0.393
- glycan array binding signal (z-score) [32]: -0.342
- glycan array binding signal (z-score) (Gal(b1-3)GlcNAc): -0.4
- glycan array binding signal (z-score) [33]: -0.276
- glycan array binding signal (z-score) [34]: -0.421
- glycan array binding signal (z-score) [35]: -0.368
- glycan array binding signal (z-score) [36]: -0.235
